Results as given in PubChem BioAssay AID1345083 (National Center for Advancing Translational Sciences (NCATS), 2018).
In all, about 94,000 compounds went through this assay and about 6,200 (6.6%) were called active. Inconclusive means that the source gave no clear call. Such entries were picked first, then a sample of the others. Calls come from the whole dose curve; as a rule, active = well fitted inhibition curve with a large enough effect; inconclusive = small, poorly fitted or top-dose-only effect; inactive = flat fitted curve, though single readings scatter. A potency beside an inconclusive call is a rough fit, not a confirmed value.
% is set by controls: 0 for no effect and ±100 for the full control effect; potency is the fitted concentration of half-maximal effect; tags give direction and shape of the fitted curve.

Assay: Cytotoxic Profiling in HEK 293 Cell Line of Diverse Libraries Using Quantitative High-Throughput Screening; note: nearly all actives have a fitted effect of over 60% in size
Details: HEK 293 viability, ATP luminescence (CellTiter-Glo), 48-72 h; activity change, negative = cytotoxicity: at 115 µM (top of the series) unless noted; series mostly up to 115 µM
Procedure, shortened: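 250 HEK 293 cells/well; compound by pintool; incubated 48 or 72 hr at 37 degree Celsius; CellTiter-Glo added, 10 min RT, luminescence imaged.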
For `CCC1(O)CCCN(C(=O)c2coc(COc3ccc4ccc(OC)cc4c3)n2)C1` (centres undefined), the Potency was inconclusive: 44.7 µM [inhibitor, partial curve, poor fit]. With `O=[N+]([O-])c1cccc(-c2noc([C@@H]3C[C@@H](O)CN3Cc3cccnc3)n2)c1` the “activity change, negative = cytotoxicity” value was inactive: -20% [at 172 µM]. With `COc1ccc2c(c1)C(CNc1ccc(C)c([S+](=O)([O-])N3CCOCC3)c1)=CC(C)(C)CO2` the Potency was inconclusive: 25.1 µM [inhibitor, full curve]. In the case of `COC(=O)c1ccc2nc(C[C@@H]3C[C@@H](C(C)C)[C@H](CNC(=O)c4cccnc4)C=C3C)[nH]c2c1`, the Potency is reported as inconclusive: 50.1 µM [inhibitor, partial curve, poor fit]. For `COc1ccccc1NC(=O)N1CCC(Oc2ncccc2C(=O)N2CCOCC2)C1` (centres undefined), the “activity change, negative = cytotoxicity” value was inactive: -18.5%. With `COc1ccc(CNC(=O)[C@@H]2CCC[C@@H](NCc3cccnc3)CN(C)C(=O)C2)cc1` the “activity change, negative = cytotoxicity” value was inactive: -1.43% [at 172 µM]. In the case of `CCCn1cc2c3c(cccc31)CN(C(=O)c1cccc(C#N)c1)CC2`, the Potency is reported as inconclusive: 56.2 µM [inhibitor, partial curve, poor fit]. With `CC(=O)N(C)CCc1noc(C2CN(C(=O)COc3ccccc3)C2)n1` the “activity change, negative = cytotoxicity” value was inactive: 2.58%. For `COc1ccc(CNC(=O)c2nc(-c3ccccc3OC)cc3c2ccn3C)cc1OC`, the Potency was inconclusive: 70.8 µM [inhibitor, partial curve, poor fit]. In the case of `Cc1ccc(C2=NC3(CCN(C(=O)c4ccc(N(C)C)cc4)CC3)ON2)cc1`, the Potency is reported as inconclusive: 89.1 µM [inhibitor, single point]. For `CN(CCN1CCCCCC1)C(=O)c1cc(COc2ccccc2)[nH]n1`, the Potency was inconclusive: 79.4 µM [inhibitor, partial curve, poor fit]. With `O=C(Cn1cccc1-c1nc(-c2ccc3c(c2)OCO3)no1)Nc1cccc(Cl)c1` the “activity change, negative = cytotoxicity” value was inactive: -19.8%. In the case of `Cc1ccc(CNC(=O)CC2Sc3ncccc3N(C)C2=O)cc1` (centres undefined), the “activity change, negative = cytotoxicity” value is reported as inactive: -3.24%. With `COC1CCC(C(=O)N2CCc3c(n(Cc4cccnc4)n(-c4ccccc4)c3=O)C2)CC1` (centres undefined) the “outcome” value was “inactive”. For `Cc1ccc(-c2cccc(CN3CCCC3C(=O)NCC3CC3)c2)cc1Cl` (centres undefined), the Potency was active: 31.6 µM. With `CCOc1ccccc1NC(=O)N1CCC(N2CC(OCCOC)C23CCCCC3)CC1` (centres undefined) the Potency was inconclusive: 89.1 µM [inhibitor, single point]. In the case of `CC(C)c1noc(Cn2nc(-c3ccccc3)c3ccccc3c2=O)n1`, the “activity change, negative = cytotoxicity” value is reported as inactive: -27.5%. In the case of `Cc1cc(C(=O)NC2CC2)c2c(C3CCNCC3)noc2n1`, the “activity change, negative = cytotoxicity” value is reported as inactive: -1.81%. In the case of `C[S+](=O)([O-])N1CCN(C(=O)c2nc3cccnc3n(CCc3ccccc3)c2=O)CC1`, the “activity change, negative = cytotoxicity” value is reported as inactive: 3.71%. In the case of `CC(C)NC(=O)[C@@H](C)C1CC[C@@]2(C)CC[C@H](NC(=O)c3ccncc3)[C@@H](C)[C@@H]2[C@H]1O` (some centres undefined), the “activity change, negative = cytotoxicity” value is reported as inactive: -3.21% [at 172 µM]. With `COc1ccc(C(=O)NCC2(COc3ccccc3)C[C@@H](O)[C@@H](O)C2)cc1` (some centres undefined) the “activity change, negative = cytotoxicity” value was inactive: -13.6% [at 172 µM]. With `CNCc1ccccc1-c1ccccc1` the “activity change, negative = cytotoxicity” value was inactive: -29.3% [at 230 µM]. In the case of `COc1ccc(OC)c(CN2CCC3(CC2)COCCN3C(=O)OCc2ccccc2)c1`, the Potency is reported as inconclusive: 50.1 µM [inhibitor, partial curve, poor fit]. In the case of `CN1CCCC2(C1)CN(C)c1ccc(C(=O)NCc3cccs3)cc12` (centres undefined), the Potency is reported as inconclusive: 126 µM [inhibitor, single point]. For `O=C(CC1CCOCC1)N1CCN(Cc2ccccc2F)CC1`, the Potency was inconclusive: 100 µM [inhibitor, single point]. For `O=C(Cc1cccc(F)c1)N1CCC(N2C(=O)C3(CCCCC3)C2c2ccccc2)CC1` (centres undefined), the Potency was inconclusive: 56.2 µM [inhibitor, partial curve, poor fit]. In the case of `COc1ccc(OC)c(CN2CC[C@@H]3OCC(=O)N(c4ccccc4)[C@H]3CC2)c1`, the Potency is reported as inconclusive: 112 µM [inhibitor, single point]. In the case of `COc1cc(NC(=O)O[C@@H]2CO[C@H]3[C@@H]2OC[C@@H]3NC(=O)c2cccs2)cc(OC)c1`, the Potency is reported as inconclusive: 126 µM [inhibitor, single point]. With `CC(C)(C)CNc1cc(Cl)nc2ccnn12` the Potency was inconclusive: 126 µM [inhibitor, single point]. With `COCC1CN(C)CC12CCN(C(=O)Cc1ccc(OC)c(Cl)c1)CC2` (centres undefined) the Potency was active: 89.1 µM. With `COC(=O)N1CCc2nc(C(C)C)nc(-c3ccc(OC)cc3)c2CC1` the Potency was inconclusive: 89.1 µM [inhibitor, single point]. For `CCCN(CC1CCOC1)C(=O)Nc1ccccc1` (centres undefined), the “activity change, negative = cytotoxicity” value was inactive: -4.09%. In the case of `Cc1nc2ccc(C(=O)NCc3cccnc3Oc3ccccc3C)cc2[nH]1`, the Potency is reported as inconclusive: 79.4 µM [inhibitor, partial curve, poor fit]. For `CCOC(=O)C1CCCN(C(=O)Cc2ccc(N(Cc3cccc(C)c3)C(=O)c3ccco3)cc2)C1` (centres undefined), the Potency was inconclusive: 50.1 µM [inhibitor, partial curve, poor fit]. With `Cc1ccc(-n2c(C3CCN(C(=O)c4ccccc4OC(F)(F)F)CC3)n[nH]c2=O)cc1` the “activity change, negative = cytotoxicity” value was inactive: 4.36%. In the case of `CC(C)c1noc(-c2cccn3c(CNC(=O)c4cc5ccccc5[nH]4)nnc23)n1`, the Potency is reported as inconclusive: 44.7 µM [inhibitor, partial curve, poor fit]. For `CCOC(=O)N1CCC(c2nnc(CN3CCCCCC3)n2C)CC1`, the “activity change, negative = cytotoxicity” value was inactive: -18.1%. In the case of `C=CCOC(=O)C1=C(C)N=C2SC=C(CC(=O)NC3CC3)N2C1c1cccc(C)c1` (centres undefined), the Potency is reported as inconclusive: 79.4 µM [inhibitor, partial curve, poor fit]. With `Cc1ccc(C2Cn3nnc(C(=O)NCc4ccccc4C)c3CO2)cc1` (centres undefined) the Potency was inconclusive: 25.1 µM [inhibitor, full curve, poor fit]. For `O=C(c1ccccc1F)N1CCCC(C(=O)N2CCC(c3nc4ncccc4[nH]3)C2)C1` (centres undefined), the “outcome” value was “inactive”. In the case of `Cc1noc(-c2ccn3c(CNC(=O)c4cccc5[nH]ccc45)nnc3c2)n1`, the Potency is reported as inconclusive: 12.6 µM [inhibitor, full curve, poor fit]. For `Cn1ncc2c(C(=O)NCc3ccc(F)cc3)cc(-c3ccc(Cl)nc3)nc21`, the Potency was active: 39.8 µM. With `O=C(Cc1c[nH]c2ncc(-c3cccnc3)cc12)NC1CC1` the “activity change, negative = cytotoxicity” value was inactive: -18.6% [at 230 µM]. In the case of `Cc1cnc(C(=O)N[C@@H]2CCC[C@@H]2C(=O)NCCN2CCOCC2)cn1`, the “activity change, negative = cytotoxicity” value is reported as inactive: -8.76%.
